Assay results published in PubChem BioAssay AID1159614 (National Center for Advancing Translational Sciences (NCATS), 2016).
Screen size: about 45,000 compounds; about 65 (0.1%) were called active. Calls follow the shape of the dose curve; as a rule, active = well fitted activation curve with a large enough effect; inconclusive = small, poorly fitted or top-dose-only effect; inactive = no such curve, though single readings can be large or run the other way. Some of the results follow.

molecular target: Galactocerebrosidase (Homo sapiens) (UniProt P54803); assay: A Novel Cell-Based Assay to Identify Small Molecules for B -Galactocerebrosidase; conditions: 145M-Twi-hGALC-G270D cells, HMU-beta-Gal fluorescence, 48 h; series mostly up to 57.5 µM; activation: at the top concentration; also: 0% is about no effect; nearly all actives have a fitted effect of over 65% in size
UniProt P54803, sequence (P54803 whole entry, looked up): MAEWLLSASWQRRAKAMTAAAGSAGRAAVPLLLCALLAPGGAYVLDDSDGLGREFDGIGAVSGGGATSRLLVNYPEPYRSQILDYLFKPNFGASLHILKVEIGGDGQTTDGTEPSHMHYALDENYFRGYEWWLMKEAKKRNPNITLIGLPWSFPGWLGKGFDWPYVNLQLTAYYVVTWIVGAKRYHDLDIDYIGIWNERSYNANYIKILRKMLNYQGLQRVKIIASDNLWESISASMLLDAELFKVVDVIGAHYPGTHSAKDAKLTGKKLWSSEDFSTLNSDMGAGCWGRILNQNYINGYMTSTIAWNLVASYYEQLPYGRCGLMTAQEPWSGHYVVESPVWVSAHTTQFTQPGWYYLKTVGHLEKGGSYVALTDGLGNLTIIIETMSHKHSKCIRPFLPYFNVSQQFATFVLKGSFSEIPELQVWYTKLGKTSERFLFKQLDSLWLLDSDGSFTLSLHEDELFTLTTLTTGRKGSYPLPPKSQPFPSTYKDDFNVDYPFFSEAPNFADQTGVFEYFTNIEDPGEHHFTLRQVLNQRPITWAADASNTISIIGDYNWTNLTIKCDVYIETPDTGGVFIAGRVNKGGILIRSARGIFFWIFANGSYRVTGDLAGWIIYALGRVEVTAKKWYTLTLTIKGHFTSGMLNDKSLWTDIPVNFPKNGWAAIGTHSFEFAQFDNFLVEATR
Summary of the method: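 qHTS, 1536-well; 145M-Twi-hGALC-G270D cells (WT line also made) in DMEM/F12 + 10% FBS; compound incubation on live cells; HMU-β-gal 0.1 mM final, pH 5.2, NaTC; carbonate stop; fluorescence increase = enhanced residual activity.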

activation, inactive:
CCOC(=O)c1ccccc1NC(=O)Cn1c(=O)n(Cc2ccc(C(=O)NCc3ccc4c(c3)OCO4)cc2)c(=O)c2ccccc21 -12.5%
COc1ccc(C(=O)Nc2cccc(-c3nc4cccnc4s3)c2C)c(OC)c1 -5.58%
CCOc1ccc(NC(=O)C2CCCN(S(=O)(=O)c3ccc(Br)s3)C2)cc1 (stereo unspecified) -3.18%
Cc1ccc(-c2c(C)n3c4c(=O)n(C)c(=O)n(C)c4nc3n2CCCO)cc1 -1.82%
O=C(CCn1cnnn1)Nc1ccccc1 -8.81%
O=C(CSc1nc2c([nH]c3ccccc32)c(=O)n1-c1ccccc1)Nc1ccccc1F -12%
COc1cccc(Cn2cnc3c2c(=O)n(C)c(=O)n3C)c1 -21.4%
Cc1c2cnn(CC(=O)NCc3ccc(F)cc3)c(=O)c2c(C)n1Cc1ccccc1Cl -7.62%
COc1ccc(-c2nc(C)c(CCNC(=O)c3ccccc3Br)s2)cc1OC -21.3%
COCCCNC(=O)C1CCN(c2ncnc3c2nc2n3CCCCC2)CC1 -11.1%
O=C(Nc1cccc(C(F)(F)F)c1)c1ccc(F)c(S(=O)(=O)N2CCc3ccccc3C2)c1 -10.4%
CCOc1cc(Br)c(C2C(C(=O)OC)=C(C)NC3=C2C(=O)c2ccccc23)cc1OCC (stereo unspecified) 1.76%
CC(=O)N1CCCc2cc(S(=O)(=O)N3CCC(N(C)C(C)C)CC3)ccc21 -14.5%
Cc1cccc(C(=O)NC(=O)Nc2ccc(-n3nc(C(F)(F)F)cc3C(F)(F)F)cc2)c1 -20.2%
CC(=O)N1c2c(cc(Br)cc2S(=O)(=O)Nc2ccccc2C)CC1C (stereo unspecified) -7.15%
CCC(C)NC(=O)C1CCN(S(=O)(=O)c2ccc3c(ccn3CC)c2)CC1 (stereo unspecified) -10.9%
Cc1nc2c(C(=O)NCCC(C)C)cnn2c(C)c1Cc1c(F)cccc1Cl 28%
COc1ccc2c(c1)c1c(c(=O)n(-c3ccc(C)cc3)c(=O)n1CC(=O)Nc1cc(C)ccc1C)n2C -5.52%
CC1CCCN(Cc2c(O)ccc3c(=O)c(-c4ccc(Cl)cc4)c(C(F)(F)F)oc23)C1 (stereo unspecified) -5.45%
COc1cc2c(cc1OC)C(c1cc(OC)c(O)c(OC)c1)CC(=O)N2 (stereo unspecified) -6.22%
COc1cccc2sc(N(Cc3cccnc3)C(=O)c3ccc(S(=O)(=O)N(C)C)cc3)nc12 -3.26%
CCOC(=O)C1CCCN(C(=O)C2CCN(S(=O)(=O)c3c(C)noc3/C=C/c3ccc(C)cc3)CC2)C1 (stereo unspecified) -10.1%
COc1ccccc1CNC(=O)c1cc2cc(S(=O)(=O)N3CCCCC3)ccc2n1C -16.2%
O=C(O)c1ccccc1NC(=O)N1c2ccccc2Sc2ccccc21 0.967%
COc1ccc(-c2cc(C(F)(F)F)nc(SCC(=O)Nc3ccc(C(C)=O)cc3)n2)cc1 -20.8%
COc1nnc(-c2ccc(N3CCCCC3)c(NC(=O)c3ccc(Cl)cc3)c2)c2ccccc12 -3.39%
CCc1cc(=O)[nH]c(SCc2nc(-c3ccccc3C)no2)n1 8.39%
CCOC(=O)C1CCN(c2ncnc3c2c(-c2ccccc2)cn3-c2ccc(C)c(Cl)c2)CC1 -9.85%
Cc1cc(C)cc(N2C(=O)CS(=O)(=O)C23C(=O)N(Cc2ccccc2)c2ccccc23)c1 (stereo unspecified) -21.4%
Cc1cc(OCC(=O)Nc2ncn[nH]2)c(C)c(C)c1Br -4.47%
CC(C)(O)c1ccccc1CC[C@@H](SCC1(CC(=O)O)CC1)c1cccc(/C=C/c2ccc3ccc(Cl)cc3n2)c1 -14.2%
O=C(/C=C/c1cn(CC(O)CN2CCc3ccccc32)c2ccccc12)c1ccc(Br)cc1 (stereo unspecified) -18.2%
CCC(=O)N1c2ccc(S(=O)(=O)NCCc3ccccc3)cc2CC1C (stereo unspecified) -7.45%
O=C1NC(=O)C(c2ccccc2)(c2ccccc2)N1 -8%
COc1ccc(OC)c(NC(=O)c2nc(SCc3ccc(F)cc3)ncc2Cl)c1 8.86%
O=C(NCCc1csc(-c2ccc(F)cc2)n1)C(=O)Nc1ccc(Cl)cc1 -16.4%
CCOC(=O)c1[nH]c(C)c(CCC(=O)NCc2ccc(OC(C)C)cc2)c1C -13.3%
COc1ccc(C)cc1NC(=O)C1CCN(S(=O)(=O)c2cccc3nonc23)CC1 -5.93%
Cc1ccc(CNS(=O)(=O)c2c(C(=O)N3CCC(C)CC3)c(C)n(C)c2C)cc1 -0.345%
COC(=O)c1ccccc1NC(=O)N(Cc1ccc(C)cc1)Cc1cccn1-c1nnc(N2CCCC2=O)s1 -8.08%
Cc1cccc(NC(=O)CSc2nnc3c4ccccc4n(C)c3n2)c1 -9.05%
CCc1ccc(S(=O)(=O)c2cn(CC(=O)Nc3cccc(C)c3)c3ccc(Cl)cc3c2=O)cc1 -12.4%
Cc1cc(Nc2cccc(O)c2)c2cccc(Br)c2n1 -7.4%
Cc1sc2ncn(CC(=O)Nc3ccc(C(F)(F)F)cc3)c(=O)c2c1S(=O)(=O)N1CCN(C)CC1 -5.44%
CCCc1cc(=O)[nH]c2nnc(SCCC(C)C)n12 -8.92%
COc1cc(NC(=O)CSc2ccc(-c3sc(-c4ccccc4)nc3C)nn2)cc(OC)c1 -11.2%
COC(=O)c1c(NC(=O)COc2ccc(OC)cc2)sc2c1CCC(C)C2 (stereo unspecified) -19.3%
CCCN1C(=O)C2(c3ccccc31)c1c(oc3cc(C)c(C)cc3c1=O)C(=O)N2CCCOC (stereo unspecified) -5.06%
CCC(=O)N1c2ccccc2CC1C(=O)NCCc1ccc(OC)cc1OC (stereo unspecified) -11.3%
CCn1cc(S(=O)(=O)c2ccc(C)cc2C)c(=O)c2cc(F)c(N3CCCC3)cc21 -6.23%
Cc1ccc(CSc2nnc3[nH]c(=O)cc(C)n23)cc1 -9.28%
CC(C)Oc1ccc(CNC(=O)C2CCCN(S(=O)(=O)c3ccc4c(ccn4C)c3)C2)cc1 (stereo unspecified) -19.8%
CCCn1cc(S(=O)(=O)c2ccc(OC)cc2)c(=O)c2cc(F)c(N3CCCCCC3)cc21 -12.9%
COc1ccc(CN2CCN(S(=O)(=O)c3ccccc3)CC2)c(OC)c1 -7.71%
CN1Cc2c(N)cccc2C(c2ccccc2)C1 (stereo unspecified) -17.4%
NC(=O)NNc1ccccc1 -25.3%
CCOC(=O)CNc1ncnc2c1nnn2C -3.34%
CC(=O)Nc1nonc1-c1nnc(SCc2ccc(C)cc2)n1C -6.99%
COc1ccc(OC)c(NC(=O)[C@H](Cc2ccccc2)N2Cc3ccccc3C2=O)c1 -6.73%
O=C(CC1C(=O)N(c2ccccc2)C(=O)N1CCc1cccs1)Nc1ccc(Cl)cc1 (stereo unspecified) -9.18%
Cc1c(C(=O)Nc2cccc(C(F)(F)F)c2)oc2ccc(S(=O)(=O)N(C)C3CCCCC3)cc12 -9.19%
CCNC(=O)c1ccc(-n2c(-c3ccccc3)cc3c2CCCCC3)cc1 -12.1%
COc1cccc(CNC(=O)CCc2c(C)nn(-c3ccc(N4CCOCC4)nn3)c2C)c1 -11.2%
COc1cccc(-c2cc(C(=O)Nc3ccc(F)cc3)[nH]n2)c1 -11.7%
CCCNC(=O)c1c2c(nc3ccccc13)C(=O)N(C1CCCCC1)C2 -5.96%
Cc1cccn2c(=O)c(/C=C(\C#N)c3nc4ccccc4n3C)c(Oc3ccc(Cl)cc3)nc12 -6.43%
CCCc1cc(=O)[nH]c2nnc(SCC(=O)Nc3cccc(C)c3)n12 -33.8%
CCOc1cc(-c2nnc(SCC(=O)NCc3ccc(C)cc3)nc2-c2ccc(OC)c(OCC)c2)ccc1OC -3.44%
CC1C(=O)N2CCCc3cc(S(=O)(=O)Nc4ccc(Br)cc4F)cc1c32 (stereo unspecified) -5.55%
COc1ccc(OC)c(NC(=O)c2nc(SCc3ccccc3F)ncc2Cl)c1 6.79%
COc1cccc(NC(=O)C2CCCN2S(=O)(=O)c2ccc3c(c2)n(C)c(=O)c(=O)n3C)c1 (stereo unspecified) 1.11%
O=C(Cn1c(=O)oc2cc(S(=O)(=O)NCc3ccccc3)ccc21)N(CCO)Cc1ccccc1 3.21%
CCC1CN(C(=O)Nc2cc(OC)cc(OC)c2)c2ccccc2S1 (stereo unspecified) -5.8%
Cc1ccc2oc(C(=O)Nc3sc4c(c3C(=O)NCc3ccccc3)CCCC4)cc(=O)c2c1 -5.82%
CCOc1ccc(NC(=O)c2ccc3nc(Cc4ccccc4)oc3c2)cc1 -10.4%
CCc1cccc(-n2c(=O)c3cccnc3n2CC(=O)Nc2ccccc2C(=O)OC)c1 -33.6%
N#CC1=C2SCN(C3CCCCC3)CN2C(=O)CC1c1ccc(F)cc1 (stereo unspecified) -14.5%
CCC(=O)N1CCc2cc(S(=O)(=O)NC(Cc3ccccc3)C(=O)NCc3ccc(F)cc3)ccc21 (stereo unspecified) -13.6%
Nc1ccc(C(=O)OCC(O)CO)cc1 (stereo unspecified) -10%
Cc1ccc(OCC(=O)OCc2cc(=O)n3c(C)csc3n2)cc1 -4.88%
Cc1ccccc1NC(=O)N1CCC(CN2CCCC2)CC1 -8.89%
COc1ccc(-n2nc3cc(C)c(NC(=O)c4ccc(C)cc4C)cc3n2)cc1Cl -18.6%
CCc1ccccc1NC(=O)CN1C(=O)COc2ccc(S(=O)(=O)N3CCCCCC3)cc21 -1.93%
CCN(CC)S(=O)(=O)c1ccc2c(c1)N(CC(=O)NCC(C)c1ccccc1)C(=O)CO2 (stereo unspecified) -10.7%
COc1ccccc1CNC(=O)c1ccc2c(c1)N(Cc1ccc(C)cc1)CCS2 -18.5%
CCn1cc(C(=O)N2CCN(c3ccccc3OC)CC2)c(=O)c2cc(S(=O)(=O)N3CCC(C)CC3)ccc21 -9.13%
Cc1ccc(-n2ncc3c(N4CCCCCC4)ncnc32)cc1C -13.9%
CNS(=O)(=O)c1cn(CC(=O)N2CCN(c3cccc(Cl)c3)CC2)cc1S(=O)(=O)NC 1.56%
CC(=O)Oc1cccc(C)c1 -16.1%
CC(C)Oc1ccc(CNC(=O)c2ccccc2NC(=O)c2nsc3ccccc23)cc1 -14.6%
COC(=O)c1ccc(CN(Cc2ccc(OC)c(OC)c2)S(=O)(=O)c2cc(C(=O)Nc3cccc(C)c3)ccc2F)cc1 -7.14%
O=S(=O)(NCCc1nnc2ccc(SCc3c(F)cccc3Cl)nn12)c1ccccc1 -3.67%
CCC(Oc1ccccc1)C(=O)Nc1ccc(OCc2cc(=O)n3ccc(C)cc3n2)cc1 (stereo unspecified) -5.89%
Cc1oc(-c2ccccc2F)nc1CSCC(=O)NCCc1ccccc1 -12.2%
Cc1ccc(NC(=O)CSc2nc3ccc(NC(=O)CCc4ccccc4)cc3s2)c(C)c1 -23.2%
CCN(CC)C(=O)C1=CC(c2ccc3c(c2)OCO3)=NS(=O)(=O)N1C -8.01%
